Experimental findings from a collection of fitness landscapes (doi:10.1126/science.1257360) are described below.

This is one part of the list. Bounds are passed on as bounds.

The labels stand for the following.
B1: PhoQ; a variant is named by its letters at X, in order, P23837 (parent)
chain: MKKLLRLFFPLSLRVRFLLATAAVVLVLSLAYGMVALIGYSVSFDKTTFRLLRGESNLFYTLAKWENNKLHVELPENIDKQSPTMTLIYDENGQLLWAQRDVPWLMKMIQPDWLKSNGFHEIEADVNDTSLLLSGDHSIQQQLQEVREDDDDAEMTHSVAVNVYPATSRMPKLTIVVVDTIPVELKSSYMVWSWFIYVLSANLLLVIPLLWVAAWWSLRPIEALAKEVRELEEHNRELLNPATTRELTSLVRNLNRLLKSERERYDKYRTTLTDLTHSLKTPLXXLQXXLRSLRSEKMSVSDAEPVMLEQISRISQQIGYYLHRASMRGGTLLSRELHPVAPLLDNLTSALNKVYQRKGVNISLDISPEISFVGEQNDFVEVMGNVLDNACKYCLEFVEISARQTDEHLYIVVEDDGPGIPLSKREVIFDRGQRVDTLRPGQGVGLAVAREITEQYEGKIVAGESMLGGARMEVIFGRQHSAPKDE

In this experiment the parent is B1. Put plainly: enrichment ratio after two sorts for PhoP signalling (ratio (wild type AVST 3.29)); higher = more functional. The note with it: with PhoP (E. coli).
As to APFC, the enrichment ratio is at most 0.25.

For the variant KRGF, the enrichment ratio is at most 0.25.

As for LNWT, the enrichment ratio was at most 0.25.

For GPTV, the enrichment ratio is at most 0.25.

For SYWG, the enrichment ratio was at most 0.25.

PSGT: the enrichment ratio is at most 0.25.

With LIMM, the enrichment ratio was at most 0.25.

In the case of EATP, the enrichment ratio is at most 0.25.

For DPCL, the enrichment ratio was at most 0.25.

As to HVHP, the enrichment ratio is at most 0.25.

Turning to NMHT, the enrichment ratio is at most 0.25.

For the variant GHDL, the enrichment ratio is at most 0.25.

For APES, the enrichment ratio was at most 0.25.

On to MYWM, for which the enrichment ratio is at most 0.25.

Take LVKH: the enrichment ratio is at most 0.25.

Consider QANY, for which the enrichment ratio is at most 0.25.

For NIKK, the enrichment ratio was at most 0.25.

Take RAGP: the enrichment ratio is at most 0.25.

In the case of WPDG, the enrichment ratio was at most 0.25.

For QGLD, the enrichment ratio is at most 0.25.

As for RFKF, the enrichment ratio is at most 0.25.

As for KLMG, the enrichment ratio is at most 0.25.

Regarding ELFP, the enrichment ratio is at most 0.25.

As for MPFM, the enrichment ratio was at most 0.25.

For DLVT, the enrichment ratio was at most 0.25.

Consider MAVG, for which the enrichment ratio was at most 0.25.

For the variant NPTC, the enrichment ratio is at most 0.25.

Turning to TCMC, the enrichment ratio is 24.2.

In the case of YSYP, the enrichment ratio is at most 0.25.

Turning to MHQG, the enrichment ratio was at most 0.25.

On to LIFI, for which the enrichment ratio is at most 0.25.

For the variant YAMP, the enrichment ratio is at most 0.25.

Take WVWL: the enrichment ratio is at most 0.25.

As to AYRL, the enrichment ratio is at most 0.25.

LYKW: the enrichment ratio was at most 0.25.

Turning to YGQL, the enrichment ratio was at most 0.25.

Take EILN: the enrichment ratio was at most 0.25.

In the case of MCFQ, the enrichment ratio came out at 1.15.

As to THMF, the enrichment ratio was determined as 9.68.

As for DVYS, the enrichment ratio is at most 0.25.

On to GSTW, for which the enrichment ratio was at most 0.25.

In the case of WFSK, the enrichment ratio is at most 0.25.

With KYSF, the enrichment ratio was at most 0.25.

HITK: the enrichment ratio is at most 0.25.

For LVNA, the enrichment ratio was at most 0.25.

Take SQKI: the enrichment ratio is at most 0.25.

Regarding EEGT, the enrichment ratio is at most 0.25.

AEIC: the enrichment ratio was 4.13.

On to FAAP, for which the enrichment ratio is at most 0.25.

With LYLN, the enrichment ratio was at most 0.25.

For the variant YTIS, the enrichment ratio is at most 0.25.

As for AAWF, the enrichment ratio is at most 0.25.

Take VHPL: the enrichment ratio was at most 0.25.

Take FWSW: the enrichment ratio is at most 0.25.

On to TKTC, for which the enrichment ratio worked out at 3.73.

Consider ERHH, for which the enrichment ratio is at most 0.25.

On to LLNQ, for which the enrichment ratio is at most 0.25.

Turning to RIVM, the enrichment ratio was at most 0.25.

For the variant MDFG, the enrichment ratio was at most 0.25.

Turning to MGAV, the enrichment ratio came to 5.2.

HPCY: the enrichment ratio was at most 0.25.

As for QYIR, the enrichment ratio is at most 0.25.

Regarding ADHG, the enrichment ratio was at most 0.25.

Turning to ANAM, the enrichment ratio came out at 32.2.

Regarding NFAG, the enrichment ratio is at most 0.25.

As for QVCL, the enrichment ratio was at most 0.25.

With WEDY, the enrichment ratio is at most 0.25.

Regarding DGIG, the enrichment ratio is at most 0.25.

Consider GYSC, for which the enrichment ratio was at most 0.25.

Turning to VEGH, the enrichment ratio is at most 0.25.

In the case of DDKC, the enrichment ratio was at most 0.25.

For KVKY, the enrichment ratio is at most 0.25.

Regarding SHLR, the enrichment ratio was at most 0.25.

Consider HHST, for which the enrichment ratio was at most 0.25.

As to LRRY, the enrichment ratio was at most 0.25.

Consider DAGS, for which the enrichment ratio was at most 0.25.

In the case of RCYR, the enrichment ratio is at most 0.25.

For IYGG, the enrichment ratio was at most 0.25.

Turning to AQGQ, the enrichment ratio came to 7.

Regarding NWWI, the enrichment ratio was at most 0.25.

In the case of ELIW, the enrichment ratio is at most 0.25.

Turning to WKKP, the enrichment ratio is at most 0.25.

For the variant FDEM, the enrichment ratio is at most 0.25.

For the variant PRVQ, the enrichment ratio is at most 0.25.

As to KKHS, the enrichment ratio is at most 0.25.

Take ISGQ: the enrichment ratio is at most 0.25.

In the case of NIHY, the enrichment ratio was at most 0.25.

For the variant TMSY, the enrichment ratio stood at 2.27.

VFNQ: the enrichment ratio was at most 0.25.

With RFTF, the enrichment ratio is at most 0.25.

Consider AHVS, for which the enrichment ratio is at most 0.25.

As for HHVM, the enrichment ratio is at most 0.25.

Consider LGVC, for which the enrichment ratio was at most 0.25.

As to PFSQ, the enrichment ratio was at most 0.25.

Take VEGE: the enrichment ratio is at most 0.25.

Take RYNC: the enrichment ratio is at most 0.25.

Regarding PRDE, the enrichment ratio is at most 0.25.

Regarding TPNW, the enrichment ratio is at most 0.25.

Regarding RKTV, the enrichment ratio is at most 0.25.

For the variant LKSV, the enrichment ratio is 0.61.

Turning to MSYW, the enrichment ratio is at most 0.25.

Regarding GFPR, the enrichment ratio is at most 0.25.

As for WVTP, the enrichment ratio was at most 0.25.

For the variant FVRY, the enrichment ratio was at most 0.25.

For KEFE, the enrichment ratio was at most 0.25.

As to QRVP, the enrichment ratio is at most 0.25.

As for LVMR, the enrichment ratio is at most 0.25.

Consider KVCA, for which the enrichment ratio was at most 0.25.

Regarding HKAL, the enrichment ratio was 0.299.

As to RMIS, the enrichment ratio was at most 0.25.

As for FFNH, the enrichment ratio is at most 0.25.

Turning to HGQL, the enrichment ratio is at most 0.25.

For the variant KVHQ, the enrichment ratio is at most 0.25.

For the variant HMHK, the enrichment ratio was at most 0.25.

For YAIV, the enrichment ratio was at most 0.25.

For NLYE, the enrichment ratio is at most 0.25.

Take MMHQ: the enrichment ratio is at most 0.25.

Turning to MFRA, the enrichment ratio is at most 0.25.

With HRHG, the enrichment ratio is at most 0.25.

For the variant NLFC, the enrichment ratio is at most 0.25.

Take ILTS: the enrichment ratio was at most 0.25.

For VCDG, the enrichment ratio was at most 0.25.

Take QKTI: the enrichment ratio is at most 0.25.

With EDYH, the enrichment ratio was at most 0.25.

Take NIWW: the enrichment ratio is at most 0.25.

Regarding TDPD, the enrichment ratio is at most 0.25.

Turning to NHSY, the enrichment ratio is at most 0.25.

With VDWY, the enrichment ratio was at most 0.25.

NLQN: the enrichment ratio is at most 0.25.

Turning to VAAM, the enrichment ratio was found to be 2.25.

On to MGIS, for which the enrichment ratio is at most 0.25.

Regarding NLLR, the enrichment ratio was at most 0.25.

Turning to VDTQ, the enrichment ratio was at most 0.25.

For the variant PWMA, the enrichment ratio is at most 0.25.

For DICD, the enrichment ratio was at most 0.25.

As for IKLK, the enrichment ratio was at most 0.25.

With QIYD, the enrichment ratio was at most 0.25.

As to HTRF, the enrichment ratio is at most 0.25.

Take QPKL: the enrichment ratio was at most 0.25.

SIWQ: the enrichment ratio worked out at 6.53.

Consider WRCW, for which the enrichment ratio was at most 0.25.

For the variant NNNQ, the enrichment ratio was at most 0.25.

For LMLD, the enrichment ratio was 0.416.

Take PYGQ: the enrichment ratio was at most 0.25.

For the variant WGFQ, the enrichment ratio is at most 0.25.

As to QLRR, the enrichment ratio is at most 0.25.

Take KSYF: the enrichment ratio is at most 0.25.

As for NSFA, the enrichment ratio was at most 0.25.

As for FEAG, the enrichment ratio came to 1.46.

On to MKTI, for which the enrichment ratio was at most 0.25.

For the variant VGGF, the enrichment ratio was at most 0.25.

On to GKPE, for which the enrichment ratio was at most 0.25.

On to FVQP, for which the enrichment ratio was at most 0.25.
